Results on 9 variants are retold here after the supplement of paper PMC12217912.

B1: TEV protease; numbered along this chain (parent)
chain: MGESLFKGPRDYNPISSSICHLTNESDGHTTSLYGIGFGPFIITNKHLFRRNNGTLVVQSLHGVFKVKDTTTLQQHLVDGRDMIIIRMPKDFPPFPQKLKFREPQREERICLVTTNFQTKSMSSMVSDTSCTFPSGDGIFWKHWIQTKDGQCGSPLVSTRDGFIVGIHSASNFTNTNNYFTSVPKNFMELLTNQEAQQWVSGWRLNADSVLWGGHKVFMVKPEEPFQPVKEATQL

The list shows a part of the results. Sequences were assembled here from the parent chain. Values near 0.05 are background.

The variants in the assay derive from B1. Put plainly: raw area under fraction-flipped curve 0-4 h after induction (AUC4h, not background-subtracted), DNA-recorder readout of cleavage of the substrate (dimensionless); higher = more cleavage of the substrate by the protease variant. The note with it: temperature: 34 °C; time window: 0-4 h after rhamnose induction. How it is done: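 In vivo DNA recorder in E. coli TOP10(DE3) ΔrhaA at 34 °C. Each TEVp single-site mutant (parent TEVp 0) is paired with a single-site variant of the 7-mer TEVs (canonical ENLYFQ|S). The substrate sits between flexible linkers in a Bxb1-sfGFP-TEVs-SsrA fusion, so cleavage stabilises Bxb1 and speeds flipping of a recombination array, read by NGS. The value is the raw area under the fraction-flipped curve over 0-4 h after rhamnose induction (AUC4h), with ≥20 reads per time point. It is not background-subtracted; inactive controls average about 0.047.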
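Further: Bxb1 expression induced with 0.2% (w/v) L-rhamnose at OD600 near 0.5, cultures sampled hourly, flipped fraction per protease–substrate barcode pair counted by paired-end Illumina sequencing.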

Regarding MGESLFKGPRDYNPISSSICHLTNESDGHTTSLYGIGFGPFIITNKHLFRRNNGTLVVQSLHGVFKVKDTTTLQQHLVDGRDMIIIRMPKDFPPFPQKLKFREPQREERICLQTTNFQTKSMSSMVSDTSCTFPSGDGIFWKHWIQTKDGQCGSPLVSTRDGFIVGIHSASNFTNTNNYFTSVPKNFMELLTNQEAQQWVSGWRLNADSVLWGGHKVFMVKPEEPFQPVKEATQL [V113Q], the “area with substrate ENLYFQA” value is 0.0736, the “area with substrate ENLYFQC” value amounted to 0.077, the “area with substrate ENLYFQG” value was 0.0735 and the “area with substrate ENLYFQI” value was 0.0646. The “area with substrate ENLYFQK” value was determined as 0.0614, the “area with substrate ENLYFQL” value is 0.0554, the “area with substrate ENLYFQM” value was 0.0746 and the “area with substrate ENLYFQN” value turned out to be 0.0577. Besides, the “area with substrate ENLYFQQ” value stood at 0.0599, the “area with substrate ENLYFQR” value is 0.0715, the “area with substrate ENLYFQS” value came to 0.0804 and the “area with substrate ENLYFQT” value worked out at 0.0571. Moreover, the “area with substrate ENLYFQV” value was determined as 0.0499 and the “area with substrate ENLYFQW” value was found to be 0.0548.

With MGESLFKGPRDYNPISSSICHLTNESDGHTTSLYGIGFGPFIITNKHLFRRNNGTLVVQSLHGVFKVKDTTTLQQHLVDGRDMIIIRMPKDFPPFPQKLKFREPQREERICLVATNFQTKSMSSMVSDTSCTFPSGDGIFWKHWIQTKDGQCGSPLVSTRDGFIVGIHSASNFTNTNNYFTSVPKNFMELLTNQEAQQWVSGWRLNADSVLWGGHKVFMVKPEEPFQPVKEATQL [T114A], the “area with substrate ENLYFQA” value amounted to 0.0877, the “area with substrate ENLYFQC” value worked out at 0.11, the “area with substrate ENLYFQD” value was determined as 0.0757 and the “area with substrate ENLYFQG” value is 0.0906. The “area with substrate ENLYFQI” value is 0.0377, the “area with substrate ENLYFQK” value was found to be 0.0716, the “area with substrate ENLYFQL” value was determined as 0.0612 and the “area with substrate ENLYFQM” value stood at 0.106. Besides, the “area with substrate ENLYFQQ” value amounted to 0.0807, the “area with substrate ENLYFQR” value amounted to 0.067, the “area with substrate ENLYFQS” value was determined as 0.107 and the “area with substrate ENLYFQT” value was found to be 0.0712. For the same variant, the “area with substrate ENLYFQV” value was 0.0608, the “area with substrate ENLYFQW” value stood at 0.0696 and the “area with substrate ENLYFQY” value was determined as 0.086.

In the case of MGESLFKGPRDYNPISSSICHLTNESDGHTTSLYGIGFGPFIITNKHLFRRNNGTLVVQSLHGVFKVKDTTTLQQHLVDGRDMIIIRMPKDFPPFPQKLKFREPQREERICLVWTNFQTKSMSSMVSDTSCTFPSGDGIFWKHWIQTKDGQCGSPLVSTRDGFIVGIHSASNFTNTNNYFTSVPKNFMELLTNQEAQQWVSGWRLNADSVLWGGHKVFMVKPEEPFQPVKEATQL [T114W], the “area with substrate ENLYFQA” value was 0.105, the “area with substrate ENLYFQC” value was determined as 0.113, the “area with substrate ENLYFQD” value turned out to be 0.0724 and the “area with substrate ENLYFQE” value was 0.0613. The “area with substrate ENLYFQG” value came out at 0.0768, the “area with substrate ENLYFQH” value is 0.077, the “area with substrate ENLYFQI” value turned out to be 0.0362 and the “area with substrate ENLYFQK” value was 0.0554. The “area with substrate ENLYFQL” value is 0.0521, the “area with substrate ENLYFQM” value is 0.0821, the “area with substrate ENLYFQN” value amounted to 0.101 and the “area with substrate ENLYFQP” value was 0.0584. Further, the “area with substrate ENLYFQR” value came to 0.0541, the “area with substrate ENLYFQS” value came out at 0.0938, the “area with substrate ENLYFQV” value turned out to be 0.0468 and the “area with substrate ENLYFQW” value was 0.0479.

In the case of MGESLFKGPRDYNPISSSICHLTNESDGHTTSLYGIGFGPFIITNKHLFRRNNGTLVVQSLHGVFKVKDTTTLQQHLVDGRDMIIIRMPKDFPPFPQKLKFREPQREERICLVTTNFQTKSMSSMVSDTPCTFPSGDGIFWKHWIQTKDGQCGSPLVSTRDGFIVGIHSASNFTNTNNYFTSVPKNFMELLTNQEAQQWVSGWRLNADSVLWGGHKVFMVKPEEPFQPVKEATQL [S130P], the “area with substrate ENLYFQA” value amounted to 0.0601, the “area with substrate ENLYFQD” value was found to be 0.0231, the “area with substrate ENLYFQH” value was found to be 0.0475 and the “area with substrate ENLYFQK” value is 0.0413. For the same variant, the “area with substrate ENLYFQL” value worked out at 0.0371, the “area with substrate ENLYFQN” value is 0.0447, the “area with substrate ENLYFQR” value is 0.0128 and the “area with substrate ENLYFQS” value was determined as 0.0518. For the same variant, the “area with substrate ENLYFQT” value was determined as 0.0469, the “area with substrate ENLYFQW” value is 0.0437 and the “area with substrate ENLYFQY” value came to 0.0405.

For the variant MGESLFKGPRDYNPISSSICHLTNESDGHTTSLYGIGFGPFIITNKHLFRRNNGTLVVQSLHGVFKVKDTTTLQQHLVDGRDMIIIRMPKDFPPFPQKLKFREPQREERICLVTTNFQTKSMSSMVSDTICTFPSGDGIFWKHWIQTKDGQCGSPLVSTRDGFIVGIHSASNFTNTNNYFTSVPKNFMELLTNQEAQQWVSGWRLNADSVLWGGHKVFMVKPEEPFQPVKEATQL [S130I], the “area with substrate ENLYFQA” value was 0.088, the “area with substrate ENLYFQC” value was 0.117, the “area with substrate ENLYFQF” value was 0.0655 and the “area with substrate ENLYFQG” value is 0.121. The “area with substrate ENLYFQH” value was determined as 0.0789, the “area with substrate ENLYFQI” value turned out to be 0.0542, the “area with substrate ENLYFQL” value is 0.0551 and the “area with substrate ENLYFQM” value amounted to 0.0882. In addition, the “area with substrate ENLYFQN” value amounted to 0.0383, the “area with substrate ENLYFQP” value came out at 0.0511, the “area with substrate ENLYFQR” value was 0.0644 and the “area with substrate ENLYFQS” value was 0.101. The “area with substrate ENLYFQW” value came out at 0.066.

MGESLFKGPRDYNPISSSICHLTNESDGHTTSLYGIGFGPFIITNKHLFRRNNGTLVVQSLHGVFKVKDTTTLQQHLVDGRDMIIIRMPKDFPPFPQKLKFREPQREERICLVTTNFQTKSMSSMVSDTWCTFPSGDGIFWKHWIQTKDGQCGSPLVSTRDGFIVGIHSASNFTNTNNYFTSVPKNFMELLTNQEAQQWVSGWRLNADSVLWGGHKVFMVKPEEPFQPVKEATQL [S130W]: the “area with substrate ENLYFQA” value stood at 0.0708, the “area with substrate ENLYFQC” value was 0.0824, the “area with substrate ENLYFQF” value was determined as 0.0613 and the “area with substrate ENLYFQG” value was found to be 0.0611. For the same variant, the “area with substrate ENLYFQH” value was determined as 0.0682, the “area with substrate ENLYFQI” value stood at 0.0561, the “area with substrate ENLYFQK” value is 0.0637 and the “area with substrate ENLYFQL” value is 0.0457. The “area with substrate ENLYFQM” value was determined as 0.0848, the “area with substrate ENLYFQP” value was 0.0591, the “area with substrate ENLYFQS” value is 0.0728 and the “area with substrate ENLYFQT” value is 0.0541. Moreover, the “area with substrate ENLYFQW” value came to 0.054 and the “area with substrate ENLYFQY” value was 0.0658.

Take MGESLFKGPRDYNPISSSICHLTNESDGHTTSLYGIGFGPFIITNKHLFRRNNGTLVVQSLHGVFKVKDTTTLQQHLVDGRDMIIIRMPKDFPPFPQKLKFREPQREERICLVTTNRQTKSMSSMVSDTSCTFPSGDGIFWKHWIQTKDGQCGSPLVSTRDGFIVGIHSASNFTNTNNYFTSVPKNFMELLTNQEAQQWVSGWRLNADSVLWGGHKVFMVKPEEPFQPVKEATQL [F117R]: the “area with substrate ENLYFQA” value was 0.11, the “area with substrate ENLYFQD” value stood at 0.0917, the “area with substrate ENLYFQH” value was determined as 0.083 and the “area with substrate ENLYFQI” value was 0.0524. The “area with substrate ENLYFQM” value was determined as 0.0847, the “area with substrate ENLYFQN” value worked out at 0.0684, the “area with substrate ENLYFQQ” value was 0.0752 and the “area with substrate ENLYFQR” value was 0.0683. The “area with substrate ENLYFQS” value was determined as 0.108, the “area with substrate ENLYFQT” value is 0.0575 and the “area with substrate ENLYFQV” value is 0.0631.

Take MGESLFKGPRDYNPISSSICHLTNESDGHTTSLYGIGFGPFIITNKHLFRRNNGTLVVQSLHGVFKVKDTTTLQQHLVDGRDMIIIRMPKDFPPFPQKLKFREPQREERICLVTTNFQTKSMSSMVSDTSCTVPSGDGIFWKHWIQTKDGQCGSPLVSTRDGFIVGIHSASNFTNTNNYFTSVPKNFMELLTNQEAQQWVSGWRLNADSVLWGGHKVFMVKPEEPFQPVKEATQL [F133V]: the “area with substrate ENLYFQA” value came out at 0.107, the “area with substrate ENLYFQC” value was 0.121, the “area with substrate ENLYFQE” value stood at 0.0678 and the “area with substrate ENLYFQH” value turned out to be 0.113. Besides, the “area with substrate ENLYFQI” value was 0.055, the “area with substrate ENLYFQK” value was found to be 0.0718, the “area with substrate ENLYFQL” value worked out at 0.0631 and the “area with substrate ENLYFQM” value stood at 0.0795. Also, the “area with substrate ENLYFQN” value came to 0.0776, the “area with substrate ENLYFQP” value is 0.0553, the “area with substrate ENLYFQQ” value was 0.0881 and the “area with substrate ENLYFQR” value was 0.0581. Also, the “area with substrate ENLYFQS” value was 0.11, the “area with substrate ENLYFQT” value was 0.0817, the “area with substrate ENLYFQV” value turned out to be 0.0566 and the “area with substrate ENLYFQW” value came to 0.0532. Further, the “area with substrate ENLYFQY” value amounted to 0.0828.

For MGESLFKGPRDYNPISSSICHLTNESDGHTTSLYGIGFGPFIITNKHLFRRNNGTLVVQSLHGVFKVKDTTTLQQHLVDGRDMIIIRMPKDFPPFPQKLKFREPQREERICLVTTNFQTKSMSSMESDTSCTFPSGDGIFWKHWIQTKDGQCGSPLVSTRDGFIVGIHSASNFTNTNNYFTSVPKNFMELLTNQEAQQWVSGWRLNADSVLWGGHKVFMVKPEEPFQPVKEATQL [V126E], the “area with substrate ENLYFQA” value stood at 0.0881, the “area with substrate ENLYFQK” value came to 0.0614, the “area with substrate ENLYFQL” value was found to be 0.0728 and the “area with substrate ENLYFQM” value worked out at 0.092. In addition, the “area with substrate ENLYFQR” value was 0.0615, the “area with substrate ENLYFQS” value was determined as 0.078, the “area with substrate ENLYFQT” value stood at 0.0793 and the “area with substrate ENLYFQW” value was 0.0597.
